Source: the RNAGym collection of RNA variant scans (doi:10.7554/elife.90254)
The source gives no read counts; variants with many changes may rest on few reads.

B1: LINE1-mini (parent)
chain: GGCAGAGCUCAACACAGCGUGGCAAAGUGGCUGUGGCUAGACUGCC

Variants of: B1
Assay: self-cleavage, relative activity (ratio to wild type); higher = more cleavage; in vitro, sequencing; the parent is a self-cleaving ribozyme

Variant	self-cleavage
G22C A24G G33A C46A	0.04
C8U A12U G17U C37A U43C	0.02
C15A G17A G22U C42U	0.02
A11U G17U A25C A26U	0.01
C10A C13A C18G	0.03
C8A G19U U38A A41C G44C	0.15
G17C C23G G29A G30U C31A	0.25
C8U G36C C45U	0.43
A4U C10A C42G C46A	0
C13G C15A U32C	0.44
A4U G7A U9G C10A U34A	0.03
A6C C10A C18A	0.03
G7A C10A A39U A41C	0
C8A A26U G40U	0.25
A26U U34A G40U	0.06
A4G A11G G22C U34C A39C	0.04
G1A C23U U34G	0.09
C8U G22A G29A	0.11
G5A G30A U38A A41G C42A	0.11
A14U C37U U43C	0.05
C18A G19A G22C	0.45
A6G A12G C13A G17U C18A	0.03
G7A U20A C37G	0.06
C23A U28G U32C U34A	0.06

Variant	self-cleavage
G5U U20A U32G C46U	0.03
G17A C23A C45A	0.13
G2U G29A C31A C37A	0.01
G2U C3G U20G G27U	0.29
A6C G22C G29A U32C A41U C46A	0.03
A4C G17C G19U C23G	0.03
C13G G29C G30A A39U	0.02
G17C C23A G33U	0.04
G2C A16G A39U	0.08
C8G U28A G33C C46U	0.08
G1A G5A G7A C8A	1.77
G1A A16G G19A A25C G36A U38C U43A	0.01
A14G C18G G30A	0.32
A6U C18U C37G A41C G44U	0.01
U32G A39C C42A	0.04
C10A A14G U32G U34A U38A	0.01
G1A A4C U20C A26U	0.03
A14G C42U C45A	0.04
G2C A14G G17A	0.09
G36A C42G C45G	0.25
A12C C13G C23G C31U U34G G44C	0
C23A C37U U38A	0.02
G2A C18A G44A	0.08
G2C A4U G5C U9A U32A U34A C46A	0.02

Variant	self-cleavage
G1C G2C A26U	0.05
G1U G2A G17C G30A G44U C46A	0.04
G1C A16U U20A U38A C45A	0.04
G7C C10G C23U G27C G30A	0.01
A16G G19A U20C U32C A39U U43A	0.3
A6C G21A A24U A25U U38C C42U	0.11
C23U G27U U34C	0.14
C13G A14U C31G U34A G40U	0.08
A4G C10U C15U C18U C46U	0.04
A4G A12G C15G A39U	0.06
A4U G5C C23A C46A	0.08
C13U G17C G30C G44A	0.09
G35C A39C G44A	0.02
G2C G7C C10G U38C	0.01
A14U C42G C46U	0.03
A11C C13G A14U G30C	0
G1A G2A A14U	1.02
C8U C31A C37U	0.36
C13U G21U A25U C31A U32C	0
A16U A26G G33A	0.04
A11U A12U A16U U32C C42G	0.01
G1U G2C C13G U28A G36U	0.12
G2U A24G A41C	0.04
A11C G19A U38C A41U	0.02

Variant	self-cleavage
G22A A24U U34G	0.72
C10G G21U G36C G44A	0.01
G5C G29U C37A	0.05
G2U C3A C10U A25G G27U G40U	0.05
G5C C37U C42U C46U	0.04
C3U G30A G33U	0.37
A16U A26G G44A	0.17
C15G A39G C45U	0.06
G2C C45U C46U	0.04
C3U C13U G19U G36U	0.25
G7C A11U G40U	0.01
C13A A14C G35A G40U	0
A6C G7A G35U	0.29
G21U G29A G40A C42G	0.03
G1U C10A C15U U32C C46A	0.01
G2U G19C A24U C37G	0.05
G1A A4G A14G A25G	0.01
A6G C31U C37G A39U	0.01
G29U U34G C37U	0
A24C G35A C42A	0.05
U20C U32A C42G	0.03
G5C U28A G36U	0.04
G7A U9C C10A	0.01
A4U G17A G27C C37U	0.05

Variant	self-cleavage
A4G C18U U38A	0.7
A25U G27A U38A	0.17
G5A A6C C15U C31U	0.01
G5A G19A G40A U43A	0.04
C13A G17A U20G G22U G27A G30C	0.03
G2U C10U G29A	0.05
C3A C8U G29A U32C G36U	0.45
C8U A14G A26C C42A	0.07
G17A G19C U32A	0.14
C3U C8A C18U U34C	0.04
G1C G27C U34A G35U U38A C45A	0.03
G5U C10A G17U C23A	0.03
A4U A6U A11U G35A	0.03
A6U C13U C23U A26C	0.08
A6G G17A A25U	0.03
G7A A26G G30U	0.23
U9A G30C G33C	0.02
C8A C15A U28A	0.11
A11U G21A C42G	0
C10A C18U G30A C42A	0
A14G G21U G33A	0.02
C8A U20A C31A C42G	0.2
C3U G7A A25C C31A	0.15
A4U A16U U32G U38C	0.05

Variant	self-cleavage
G21U G29U U34G	0.13
A11C A16U U28C G30U	0.01
A4C C10G G19A G27C G36C C37G U43G	0
C18G G19U A39U	0.35
C15G C23U G27U	0.07
C13U C18A G21U A24U	0.08
C3A C8A C13A U20C A41C	0.19
A12C U20C G21C A26C G27U G30C G35U A39U	0.02
A14C G30A C31U U32A	0.04
C8U C15A G27A C31A G44A C46U	0.41
G1C A11U C18U U20G G21U G33C G40C	0
C3U A24U G30A	1.25
G7A C13G G17U C46U	0.1
A16G G17A G44A	0.01
C3U G17U G35U C37U	0.05
G5U A12C C23A	0.02
C3U U20A C42G	0.14
G1C U20G U32C	0.01
G7A G27A C31A	0.09
C8A A11C G36U C42U	0.04
C15G G21C G44C	0.01
G1C G7A C18A G35A G44U	0
U9C A25G G30A G40C	0.01
A16G U20G C23A U32G C42U	0.06

Variant	self-cleavage
A12G G27A U34A C45A	0.04
G1U G27U G36C U38C U43A	0.04
G7U A11U G35U C46U	0.02
G1U C10G A25C G36A A41G	0.02
G7U C15A G17C	0.09
U9C A16C G19U	0.04
A12G G29A G33A C37A	0.05
G21C U32G A41G	0.57
G5U G17C G29U G30U G44A	0.01
G1A U20A G27A U38C	0.29
G7U C10A G27U G29C	0.01
A4G G7A C13U A14C C15G	0.04
C18U U20C C31U C37U	0.04
G7C G27U G33C	0.02
C8G C13A A25U G35A	0.12
C10U C18A A41C	0.02
A14U C31U G40U	0.03
G1A C8A A25U U32A C37G	0.3
A14C G27C A41U C45G	0.12
G2A U9A G33C	0.06
C13U G17U C18G U34A	0.02
G5C C13A G35U U43G	0.01
C3A G5A G7U C18U C23U G40A	0.24
